SMILES strings stand for the structures. Among all 310,000 compounds or so, about 14,000 (4.5%) showed an effect of 50% or more. The effect is printed as a negative number. Some of the results follow.
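Further: peak tail current of the secondary pulse compared with the same well before compound.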

For the experiment, the target named is human ether-à-go-go-related gene (hERG) potassium channel (human, UniProt Q12809). Nature of the experiment: primary screen, population patch clamp on CHO cells stably expressing hERG.
human ether-à-go-go-related gene (hERG) potassium channel, sequence (Q12809 whole entry, looked up): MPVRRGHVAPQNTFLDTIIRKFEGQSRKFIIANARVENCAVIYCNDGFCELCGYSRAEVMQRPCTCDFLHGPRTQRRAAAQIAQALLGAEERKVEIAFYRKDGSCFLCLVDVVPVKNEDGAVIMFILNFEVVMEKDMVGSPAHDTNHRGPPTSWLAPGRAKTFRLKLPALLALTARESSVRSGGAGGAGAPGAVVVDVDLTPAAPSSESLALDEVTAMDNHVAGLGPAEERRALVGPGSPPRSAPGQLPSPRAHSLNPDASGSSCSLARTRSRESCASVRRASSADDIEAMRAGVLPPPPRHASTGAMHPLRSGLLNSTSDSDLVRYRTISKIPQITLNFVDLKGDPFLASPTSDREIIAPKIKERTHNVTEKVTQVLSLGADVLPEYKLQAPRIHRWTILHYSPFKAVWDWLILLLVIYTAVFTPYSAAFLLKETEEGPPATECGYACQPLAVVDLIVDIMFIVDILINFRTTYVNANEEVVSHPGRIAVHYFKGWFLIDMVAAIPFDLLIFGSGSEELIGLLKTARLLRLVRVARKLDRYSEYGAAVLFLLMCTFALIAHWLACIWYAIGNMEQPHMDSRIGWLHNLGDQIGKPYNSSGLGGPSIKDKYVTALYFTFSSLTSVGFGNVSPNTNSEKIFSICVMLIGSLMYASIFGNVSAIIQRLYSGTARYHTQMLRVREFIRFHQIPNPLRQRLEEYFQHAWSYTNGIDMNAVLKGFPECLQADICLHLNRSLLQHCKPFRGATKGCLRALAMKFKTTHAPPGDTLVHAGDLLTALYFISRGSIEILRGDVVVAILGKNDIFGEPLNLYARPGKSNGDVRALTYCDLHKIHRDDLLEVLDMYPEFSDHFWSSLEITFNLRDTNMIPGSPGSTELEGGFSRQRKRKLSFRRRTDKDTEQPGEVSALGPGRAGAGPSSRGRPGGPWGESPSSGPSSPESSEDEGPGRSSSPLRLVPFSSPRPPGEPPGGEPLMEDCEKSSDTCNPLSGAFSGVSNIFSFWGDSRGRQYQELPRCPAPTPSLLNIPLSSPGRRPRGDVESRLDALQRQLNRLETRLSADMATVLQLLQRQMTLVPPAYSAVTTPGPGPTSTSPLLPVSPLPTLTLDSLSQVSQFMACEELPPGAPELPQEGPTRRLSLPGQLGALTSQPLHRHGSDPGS
As to `Nc1ccc(NC(=O)c2ccc(C(=O)Nc3ccc(N)cc3)cc2)cc1`, the “hERG current change (%, negative = inhibition) at 10uM” value was determined as 6.26%.
Next, `O=C(COC(=O)/C=C/c1cccc(F)c1)Nc1ccccc1`: 16.2%; `CC(CCc1ccco1)NC(=O)Cn1ncc2c1-c1ccccc1OC2` (stereo not drawn): -1.05%; `CN(Cc1cccs1)c1nc(-c2cccnc2)nc2ccccc12`: -53.5%.
Next, `Cc1ccc(C)c(NC(=O)CSc2nnc(C)c(=O)n2N)c1`: 6.12%.
For the compound `CN1CCN(C(=O)c2cccc(S(=O)(=O)N3CCCC3)c2)CC1.Cl`, the “hERG current change (%, negative = inhibition) at 10uM” value was determined as 16.9%.
Next, `Cc1ccc(-c2nn(CC(=O)NCc3ccccn3)c(=O)c3ccccc23)cc1S(=O)(=O)N(C)C`: -49.3%; `CS(=O)(=O)NCCSc1nnnn1-c1ccccc1`: 13%; `CCOC(=O)c1nn(-c2ccc(F)cc2)c(=O)cc1OCC(=O)Nc1ccc(F)c(F)c1`: 12%.
Regarding `O=C(NNc1ccccc1C(F)(F)F)c1sccc1Br`, the “hERG current change (%, negative = inhibition) at 10uM” value came to 5.65%.
Turning to `Cc1cccc(NC(=S)N(Cc2cccc(Br)c2)CC2CCC(C(=O)O)CC2)c1` (stereo not drawn), the “hERG current change (%, negative = inhibition) at 10uM” value is given as -4.28%.
Consider `C[N+]1(CN2C(=O)C3C4C=CC(C4)C3C2=O)CCCCC1.[I-]` (stereo not drawn), for which the “hERG current change (%, negative = inhibition) at 10uM” value was determined as 17.4%.
The same measure for `CC1=CC(=O)CC(C)(C)C1(O)/C=C/C(C)=C/C(=O)O` (stereo not drawn): 5.43%.
As to `Cc1ccc(CS(=O)(=O)c2ncn[nH]2)cc1`, the “hERG current change (%, negative = inhibition) at 10uM” value came to 26.8%.
In the case of `CN1CCN(CC(=O)Nc2cccc([N+](=O)[O-])c2)CC1`, the “hERG current change (%, negative = inhibition) at 10uM” value turned out to be 3.24%.
For `Cc1cc2cc(C)c(NCCNC(=O)c3cccc(F)c3)nc2cc1C`, the “hERG current change (%, negative = inhibition) at 10uM” value was determined as 9.57%.
Next, `COc1cccc(Cn2cccc(NC(=O)Nc3cccc(C#N)c3)c2=O)c1`: 6.1%.
For the compound `OC[C@H](O)[C@H](O)[C@@H](O)[C@@H](O)[C@@H]1SC(c2ccccc2)=NN1c1ccccc1`, the “hERG current change (%, negative = inhibition) at 10uM” value was found to be 7.29%.
The same measure for `CC(C)[C@@H](CO)NC(=O)c1ccc2c3n(nc2c1)-c1ccc(Cl)cc1CO3`: -6.39%.
Consider `S=C(NC1CC1)N1CCN(c2ccc(Cl)cc2)CC1`, for which the “hERG current change (%, negative = inhibition) at 10uM” value amounted to 1.76%.
Next, `CC(=O)N[C@@H](Cc1c[nH]c2ccccc12)C(=O)OCC(=O)Nc1ccc(Cl)c(S(=O)(=O)N(C)C)c1`: -8.61%.
Turning to `CCOC(=O)C(C(=O)OCC)C1CCS(=O)(=O)C1` (stereo not drawn), the “hERG current change (%, negative = inhibition) at 10uM” value was determined as 14.4%.
In the case of `CC1CC(C)CN(C(=O)C2CCCN(S(=O)(=O)c3cccc4nonc34)C2)C1` (stereo not drawn), the “hERG current change (%, negative = inhibition) at 10uM” value is listed as -36.4%.
The same measure for `N#Cc1nc(-c2ccc(OCc3ccccc3)cc2)oc1NCCCN1CCOCC1`: 1.35%; for `O=C1c2ccccc2C(=O)N1CCCCSc1nnnn1-c1ccccc1`: -51.7%.
`O=C(O)c1ccc(N/N=C/c2cccc(C(F)(F)F)c2)cc1`: the “hERG current change (%, negative = inhibition) at 10uM” value is reported as 27.3%.
Next, `COCCN(C(=O)COC(=O)c1cc2ccccc2cc1O)c1c(N)n(Cc2ccccc2)c(=O)[nH]c1=O`: -17.6%; `Cl.Oc1ccc(C2NCc3ccccc3-n3cccc32)cc1Cl` (stereo not drawn): -10.9%; `Cc1cccc(C(=O)Nc2ccccc2C(=O)Nc2ccc(C(=O)O)cc2)c1`: 22.1%.
On to `CCOC(=O)N1CCN(c2nnnn2-c2ccccc2)CC1`, for which the “hERG current change (%, negative = inhibition) at 10uM” value is -0.913%.
Turning to `CCN(C(=O)COC(=O)c1cccc(NS(=O)(=O)c2ccc(F)c(F)c2)c1)C1CCS(=O)(=O)C1` (stereo not drawn), the “hERG current change (%, negative = inhibition) at 10uM” value stood at 18.5%.
The same measure for `COC(=O)c1ccccc1NC(=O)c1ccc2c(c1)C(=O)N(Cc1ccco1)C2=O`: -1.27%; for `Cc1cc(OCC(=O)N[C@@H](Cc2c[nH]c3ccccc23)C(=O)O)c2c(C)c(C)c(=O)oc2c1`: -4.7%.
Next, `COc1cc(OC)cc(-c2nnc(SCC(=O)Nc3ccc(C(=O)O)cc3)s2)c1`: 27.6%.
The same measure for `CCn1nccc1C(=O)Nc1cc(Cl)ccc1Cl`: 3.21%; for `Clc1ccc(-c2c[n+](Cc3ccc(Br)cc3)c3n2CCCCC3)cc1.[Br-]`: -66.4%.
For the compound `CCCc1nc(-c2cc3ccc(C)cc3[nH]c2=O)no1`, the “hERG current change (%, negative = inhibition) at 10uM” value is given as -16.3%.
Next, `CCC1CCCCN1CCCNC(=O)CCC(=O)N1CC(C)Oc2ccccc21` (stereo not drawn): -5.13%; `COC(=O)C1=C(C)N(C(C)c2ccccc2)C(=O)/C1=C\c1ccco1` (stereo not drawn): 26.3%.
The same measure for `CC(C(=O)Oc1ccc2c(c1)OCO2)N1C(=O)c2ccccc2C1=O` (stereo not drawn): -23.1%; for `COc1ccc(CCNC(=O)C(=O)c2c(C)[nH]c3ccccc23)cc1`: 6.09%; for `CC(=O)C1C(c2ccccc2)c2c(noc2C)CC1(C)O` (stereo not drawn): 5.78%.
The same measure for `O=C(c1cccs1)c1ccc(-c2cccs2)s1`: 1.57%.
Regarding `CCC(C)(C(=O)Nc1ccccc1C)N(C(=O)CNC(C)=O)c1ccc(C)cc1` (stereo not drawn), the “hERG current change (%, negative = inhibition) at 10uM” value was 14.8%.
As for `O=C(CCS(=O)(=O)c1ccc(F)cc1)Nc1nc(-c2ccncc2)cs1`, the “hERG current change (%, negative = inhibition) at 10uM” value is reported as -8.06%.
Turning to `O=c1[nH]nc(SCc2nnc(-c3ccc([N+](=O)[O-])cc3)o2)n1C1CCCCC1`, the “hERG current change (%, negative = inhibition) at 10uM” value is -27.4%.
Next, `COc1cc2c(cc1NCc1ccc3c(c1)OCO3)oc1ccccc12`: 18.5%; `Cc1cc(-c2csc(N)n2)c(C)n1CCc1ccccc1.Cl`: -12.4%.
On to `CCCCc1nc(S(=O)(=O)c2ccc(Cl)cc2)c(N2CCOCC2)o1`, for which the “hERG current change (%, negative = inhibition) at 10uM” value is given as -69.6%.
Next, `CCOC(=O)CC(NC(=O)Cn1nnc(-c2ccccc2C)n1)c1ccc(OC)cc1` (stereo not drawn): -11.3%; `O=C(N/N=C/c1ccccn1)c1ccc([N+](=O)[O-])cc1Cl`: 7.03%; `Cc1ccc(C)c(S(=O)(=O)N2CCCOC2CNC(=O)C(=O)NCc2ccc3c(c2)OCO3)c1` (stereo not drawn): -18.1%.
The same measure for `Cc1ccc(NC(=O)NC(=O)COc2ccc(Cl)cc2Cl)c(C)c1`: -0.327%; for `CC(C)(C)c1ccc(C(=O)NC(CC(=O)O)c2ccc(OC3CCCC3)cc2)cc1` (stereo not drawn): 8.76%.
As for `CC12CCC3C(CC=C4CC5(CCC43C)OCCO5)C1CCC2=O` (stereo not drawn), the “hERG current change (%, negative = inhibition) at 10uM” value is -1.11%.
The same measure for `O=c1cc(CSc2ccccn2)c2ccccc2[nH]1`: 9.52%.
Consider `CCOC(=O)c1cnn(-c2nc(-c3ccccc3)cs2)c1C(F)(F)F`, for which the “hERG current change (%, negative = inhibition) at 10uM” value is recorded as 0.992%.
Next, `O=C(NC1CC1)c1ccc(N2CCCCC2)c([N+](=O)[O-])c1`: -48.3%; `Nc1nc(SCc2nc3scc(-c4ccccc4)c3c(=O)[nH]2)n[nH]1`: 9.79%.
The same measure for `Cc1ccc2c(c1)C(=O)C(=O)N2CCCOc1ccccc1`: -16.9%; for `O=C(COc1ccccc1)Nc1ccc(S(=O)(=O)N2CCOCC2)cc1`: 16.2%.
For `CC1CCN(C(=O)c2ccc3c(c2)OCCO3)CC1`, the “hERG current change (%, negative = inhibition) at 10uM” value is listed as 7.51%.
The same measure for `Nc1cc(=O)n(Cc2ccccc2)c(=O)n1-c1ccc(F)cc1`: 8.88%; for `Cc1ccc(S(=O)(=O)Nc2cc(C(=O)N3CCOCC3)ccc2N2CCCCC2)cc1`: -20.5%.
Next, `Cc1oc(-c2ccccc2)nc1C(=O)OCC(=O)NC(C)c1ccccc1` (stereo not drawn): -27.7%; `Oc1c(C(c2ccco2)N2CCOCC2)sc2ncnn12` (stereo not drawn): 7.54%; `Cc1ccc2[nH]c(CNC(=O)c3ccccc3F)cc2c1`: -9.38%.
Next, `CC(C)(C)OC(=O)N1CCN(C(=O)c2[nH]cnc2C(=O)Nc2cccc(Cl)c2)CC1`: 9.56%; `O=C(NNC1OC(CO)C(O)C(O)C1O)c1cccnc1` (stereo not drawn): 29.5%.
Consider `O=C(N/N=C/c1cccs1)C(=O)N1CCCC1`, for which the “hERG current change (%, negative = inhibition) at 10uM” value amounted to 13.8%.
Turning to `Cc1ccc(-c2noc(C3CCCN(S(=O)(=O)c4ccc5ccccc5c4)C3)n2)o1` (stereo not drawn), the “hERG current change (%, negative = inhibition) at 10uM” value amounted to 4.15%.
For `CCCN(CC(=O)Nc1ccccc1C)C(=O)C1CC(=O)N(c2cccc(C)c2C)C1` (stereo not drawn), the “hERG current change (%, negative = inhibition) at 10uM” value was -3.81%.
For `O=C(NCCS(=O)(=O)N1CCN(c2ccccc2F)CC1)c1cccs1`, the “hERG current change (%, negative = inhibition) at 10uM” value is given as -6.66%.
Take `Clc1ccc(C2CC(c3ccccc3)Nc3ncnn32)cc1` (stereo not drawn): the “hERG current change (%, negative = inhibition) at 10uM” value is recorded as -64.4%.
As to `Clc1ccsc1-c1ccc2ccccc2n1`, the “hERG current change (%, negative = inhibition) at 10uM” value is recorded as 19.7%.
Next, `OCCC1CN(Cc2ccc3nsnc3c2)CCN1C1CCCCC1` (stereo not drawn): -44.6%; `O=C(COC(=O)c1ccco1)Nc1nc2ccc([N+](=O)[O-])cc2s1`: -17.6%; `CN(c1ccccc1)c1nc(N)c([N+](=O)[O-])c(NCc2ccccc2)n1`: 17.6%.
The same measure for `O=C(NC1CCN(S(=O)(=O)c2ccccc2F)CC1)c1cccnc1`: 12.6%; for `COc1ccc(C(=O)NCCc2c[nH]c3ccccc23)cc1[N+](=O)[O-]`: -23.1%; for `Cc1cc(Nc2ccccc2Cl)c2ccccc2n1`: -64.2%.
The same measure for `CCOC(NC(=O)c1ccccc1)C(NC(=O)c1ccccc1)OCC` (stereo not drawn): -0.069%.
Regarding `O=C(CCCn1c(=O)[nH]c2cc(Cl)ccc2c1=O)N1CCC2(CC1)OCCO2`, the “hERG current change (%, negative = inhibition) at 10uM” value is listed as -13.4%.
The same measure for `CCOc1ccc(Nc2nc3ccccc3n3cnnc23)cc1`: -7.3%.
As to `CC1CCCC(C(=O)O)N1C(=O)CCSC(=O)c1ccccc1` (stereo not drawn), the “hERG current change (%, negative = inhibition) at 10uM” value is listed as -0.246%.
Next, `CCN(CC)CCN(C(=O)c1ccc2ncsc2c1)c1nc2cc3c(cc2s1)OCO3.Cl`: -61.8%.
`O=C(O)C(=O)O.O=C(c1ccccc1)c1ccc(OCCOCCN2CCN(Cc3ccccc3)CC2)cc1`: the “hERG current change (%, negative = inhibition) at 10uM” value is listed as -78.9%.

Source of the values: paper PMC4336329 (PLoS ONE, 2015).
